This is one part of the list.
T1: UNK ZnF1-3 (human, UniProt Q9C0B0 31-174)
T1 sequence: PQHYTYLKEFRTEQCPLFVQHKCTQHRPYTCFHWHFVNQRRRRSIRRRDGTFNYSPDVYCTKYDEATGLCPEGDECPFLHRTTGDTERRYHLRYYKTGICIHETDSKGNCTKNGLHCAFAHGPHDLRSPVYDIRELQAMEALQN

B1: chr1:213174215:213174216:-_ENSG00000174606_ENST00000366962|hu_hu|motif|central (ssRNA)
RNA: GGGAGUUCUACAGUCCGACGAUCUGUCUUUUCUACUUUUGGUACCUGCUGUACCUCAUACACACAGUUCUGUGAGAUACCGGGGUUUGGGGGCCAAAUUGGAAUAGAUAAAAUUCUUUGUCCCCGUGAAGACUGUUCCUGGCCCAACAGAGGAUUGAGCAUCA
B2: chr7:135612270:135612271:-_ENSG00000105887_ENST00000393085|hu_mus|hu_hu_hu_mus_False|58_108 (ssRNA)
RNA: GGGAGUUCUACAGUCCGACGAUCGUUUCUGAGAUGUAUGUUAAAUAGUACUUCAGUGGAAAACAAAACUUAACCUUUCGCUAAUGCGUGUUGUACCAAAAGCAGACAUUUUAGCUUCAUUUAUUCAAAAAUAUUAACAUUAAGCAACAGAGGAUUGAGCAUCA
B3: chr6:51416610:51416611:-_ENSMUSG00000004980_ENSMUST00000090002|perfect_dup|motif|central (ssRNA)
RNA: GGGAGUUCUACAGUCCGACGAUCCCUAUCGGUAAUUAUUUCAAUAGUAUCAAUUUUUCCAUACUCUUCAAAGUAAUCUCGGAGGUGGUGUUCCUCAGUAUCUUCCUUAAUUCCACCAACAAACAGCUUCUUCACAGUCACAUGCAACAGAGGAUUGAGCAUCA
B4: 42872735_42873035_6896_CDS_ENSG00000105429_ENST00000334370|human|control|control (ssRNA)
RNA: GGGAGUUCUACAGUCCGACGAUCCAGGAAGGCCCAGGAGGCCCCCGGACGCCCACAUGUCAGCCCAUCACGGGGGCCGCUGAGUCCACCCUCCAUGCAGCGGCCACCCCCAUCCUGGCCCCCCCAGGCACACCAGCCGCAAUGCAACAGAGGAUUGAGCAUCA
B5: chr5:34519336:34519337:-_ENSMUSG00000037235_ENSMUST00000042701|mus_mus|FALSE|FALSE (ssRNA)
RNA: GGGAGUUCUACAGUCCGACGAUCGGUGGUCAUUAAGGCCCCUACACGGAUCCUGCCGAGAUUUGUAGAAAUGAUAUUUAAUACUUCUGGAAUGAUUAGGAAUCUGAGAACAGAUUGUGGGUGGCUACGCUGGACUCCAGGAUGCAACAGAGGAUUGAGCAUCA
B6: chr11:22899103:22899104:+_ENSMUSG00000007739_ENSMUST00000173867|mus_mus|motif|central (ssRNA)
RNA: GGGAGUUCUACAGUCCGACGAUCUAAAAUAUAGGCUCUCUCCUCUCGAAGCACUCGAUCCAUCUGGGCAUAGUCAGAUACGGCGGUUUGAUUAUCCAUAUCUGUUUUAGGAGCAGAUAAGCAAAACUGAAUAAGCCCAAUCUUCAACAGAGGAUUGAGCAUCA

target: T1, UNK ZnF1-3; experiment: nsRBNS (natural sequence RNA bind-n-seq); RBNS binding buffer (assumed for nsRBNS): 25 mM Tris pH 7.5, 150 mM KCl, 3 mM MgCl2, 0.01% Triton X-100, 500 ug/ml BSA, 20 U/ml SUPERase-In, 4 C; UNK is unkempt and MSI1 is Musashi-1; names of the RNAs are library labels; protein concentration not given here; high values mean tight binding

Row | Binder | binding signal [enrichment R]
1 | B1 | 0.761
2 | B2 | 1
3 | B3 | 1.4
4 | B4 | 0.97
5 | B5 | 1.17
6 | B6 | 1.07
